In PubChem BioAssay AID485367 (National Center for Advancing Translational Sciences (NCATS), 2010):
Out of some 330,000 compounds screened, about 560 (0.17%) were called active. The shares of active, inactive and inconclusive entries below differ from those in the screen. Calls follow the shape of the dose curve; as a rule, active = well fitted inhibition curve with a large enough effect; inconclusive = small, poorly fitted or top-dose-only effect, or effect the other way; inactive = flat fitted curve, though single readings scatter. Potencies of inconclusive entries are left out as doubtful fits.

Target: ATP-dependent 6-phosphofructokinase (Trypanosoma brucei brucei) (UniProt O15648)
Assay: qHTS Assay to Find Inhibitors of T. brucei phosphofructokinase; also: nearly all actives have a fitted effect of over 60% in size
Details: T. brucei PFK, ADP-Glo luminescence; series mostly up to 57.5 µM
How it was run: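 ADP-Glo luminescence quantified ADP after 45 min at room temperature, with 1.25 nM T. brucei PFK, 0.1 mM ATP and 0.5 mM fructose-6-phosphate in pH 8.0 TEA buffer. qHTS titrations up to 57 µM; curves classified by quality.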
Potency is read from the fitted curve at half-maximal effect; tags tell the direction and shape of the fitted curve.

Chain of UniProt O15648 (O15648 whole entry, looked up): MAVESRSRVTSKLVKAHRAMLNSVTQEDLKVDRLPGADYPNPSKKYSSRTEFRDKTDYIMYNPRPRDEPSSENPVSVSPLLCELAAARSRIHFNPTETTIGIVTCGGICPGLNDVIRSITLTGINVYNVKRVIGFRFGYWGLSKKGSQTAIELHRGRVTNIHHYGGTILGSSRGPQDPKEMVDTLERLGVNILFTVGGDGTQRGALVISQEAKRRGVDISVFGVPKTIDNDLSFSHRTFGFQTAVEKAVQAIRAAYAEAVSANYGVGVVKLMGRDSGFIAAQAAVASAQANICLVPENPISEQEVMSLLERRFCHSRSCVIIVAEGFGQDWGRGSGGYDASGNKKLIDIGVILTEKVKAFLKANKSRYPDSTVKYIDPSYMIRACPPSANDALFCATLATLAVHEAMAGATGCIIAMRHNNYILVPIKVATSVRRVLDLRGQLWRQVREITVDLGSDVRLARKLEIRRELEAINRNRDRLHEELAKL

Row | SMILES | Potency
1 | COc1ccc(S(=O)(=O)CC(=O)c2cc3cc(Br)ccc3oc2=O)cc1 | inconclusive [activator, single point]
2 | O=[N+]([O-])c1ccc(NCc2ccncc2)cc1 | active: 5.36 µM
3 | COc1cc(C(=O)N2CCN(Cc3ccccn3)CC2)cc(OC)c1OC | inconclusive [activator, full curve, poor fit]
4 | O=C(COC(=O)c1cccc(OC(F)F)c1)Nc1ncccn1 | inactive
5 | O=C(COc1ccc(Cl)cc1Br)OCC(=O)c1ccc[nH]1 | inconclusive [falling, partial curve]
6 | Cc1nnc(NCCc2ccccc2)[nH]c1=O | inconclusive [falling, partial curve]
7 | NC(=O)N(CCC(=O)O)c1ccccc1 | inconclusive [falling, single point]
8 | NS(=O)(=O)c1ccc(NC(=O)COc2ccc(Cl)cc2)cc1 | active: 1.9 µM
9 | CCN1CCc2nc(N)sc2C1 | inconclusive [falling, single point]
10 | O=C(/C=C/c1ccco1)NCCc1ccc(F)cc1 | inconclusive [falling, single point]
11 | NS(=O)(=O)c1ccc(NC(=S)NCc2ccc(Cl)cc2)cc1 | active: 12 µM
12 | COc1cc(/C=C2\C(=N)N3N=C(S(C)(=O)=O)SC3=NC2=O)ccc1OCCOc1ccc(C)cc1 | inactive
13 | CN1CCc2ccccc2Cc2[nH]c3ccccc3c2CC1 | active: 12 µM
14 | O=C(/C=C/c1ccc2c(c1)OCO2)NCCSCc1cccc(Cl)c1 | inconclusive [falling, single point]
15 | COc1cccc(-c2noc(Cn3nc(C)c([N+](=O)[O-])c3C)n2)c1 | inconclusive [falling, single point]
16 | Cc1cccc(NC(=S)Nn2cnnc2)c1C | inconclusive [falling, full curve, poor fit]
17 | Cc1noc(C)c1CSCC(=O)N(CC(C)C)c1c(N)n(Cc2ccccc2)c(=O)[nH]c1=O | inconclusive [falling, single point]
18 | Cc1csc(C(=O)O)c1NC(=O)c1c(Cl)cccc1Cl | inconclusive [falling, single point]
19 | Nc1nccnc1C(=O)OCC(=O)Nc1ccc2[nH]c(=O)[nH]c2c1 | inconclusive [falling, partial curve]
20 | CCSc1nnc(NC(=O)C2CCN(C(=O)c3ccc(F)cc3)CC2)s1 | inactive
21 | CCn1cc(/C=C(\NC(=O)c2ccc(OC)cc2)C(=O)N2CCN(C)CC2)c2ccccc21 | inconclusive [falling, single point]
22 | CCOC(=O)c1sc(=S)n(C)c1NC(=O)c1ccccc1 | inconclusive [falling, partial curve]
23 | O=C(CCS(=O)(=O)c1ccc(Cl)cc1)NC1CCCC1 | inconclusive [falling, single point]
24 | Cc1[nH][nH]c(=O)c1C(c1ccc2c(c1)OCO2)c1c(C)[nH][nH]c1=O | active: 23.9 µM
25 | O=C(CCNc1cc(Cl)cc(Cl)c1)c1ccco1 | inconclusive [falling, single point]

Row | SMILES | Potency
26 | COc1cc(CC(=O)Nc2nc(-c3ccccc3)c(C(C)=O)s2)cc(OC)c1OC | inconclusive [falling, partial curve]
27 | COCCN(C(=O)COC(=O)/C=C/c1ccc(C(F)(F)F)cc1)c1c(N)n(Cc2ccccc2)c(=O)[nH]c1=O | inconclusive [activator, single point]
28 | CC(O)CNc1nc2ccccc2n1CC(=O)NCC(F)(F)F (centres undefined) | inconclusive [falling, partial curve, poor fit]
29 | CCN(CC(=O)NCc1ccc(Cl)cc1)C(=O)CCOc1ccc(C)cc1 | inconclusive [activator, full curve, poor fit]
30 | CC1=NN(c2ccc(S(=O)(=O)O)cc2Cl)C(=O)C1 | inconclusive [activator, single point]
31 | O=C(Nc1nc(-c2ccco2)c(-c2ccco2)s1)c1cnccn1 | active: 12 µM
32 | Cc1ccc2cc3c(nc2c1)N(Cc1ccco1)CC3 | inconclusive [falling, single point]
33 | Cc1noc(C)c1C(=O)Nc1nc2ccc(F)cc2s1 | inconclusive [falling, partial curve]
34 | Cn1ccc(=Nc2ccc(NC(=O)c3ccc(N=c4ccn(C)c5ccc([N+](=O)[O-])cc45)cc3)cc2)cc1 | inconclusive [activator, partial curve]
35 | O=C(NNC(=O)c1ccccc1O)c1ccc(Br)cc1 | inactive
36 | CS(=O)(=O)c1ccccc1-c1nnc(NC(=O)c2ccc(S(=O)(=O)N3CCCC3)cc2)o1 | inactive
37 | CCOC(=O)CNc1nc(Cl)c(C#N)s1 | inconclusive [falling, single point]
38 | COc1ccc(CCNC(=O)Cc2cc(=O)[nH]c(=O)[nH]2)cc1OC | inconclusive [falling, single point]
39 | Nc1nnc(SC2CC(=O)N(c3ccccc3)C2=O)s1 (centres undefined) | inactive
40 | CCOC(=O)c1c(-c2ccc(OC)cc2)csc1/N=C/C1C(=O)CCCC1=O | inconclusive [activator, partial curve]
41 | O=C(CCc1ccc(O)c(O)c1)N/N=C/c1ccc2c(c1)OCO2 | active: 4.26 µM
42 | Cc1cccc(C)c1OCc1cc(C(=O)N2CC3C[C@@H]4CC2C[C@H](C3)C4)no1 | inactive
43 | O=C(Cc1cccs1)Nc1ccc(S(=O)(=O)N2CCCC2)cc1 | inconclusive [falling, partial curve]
44 | O=C(O)c1cc(N/N=C/c2cccc3ccccc23)ccc1Cl | inactive
45 | Cc1cc(N=Nc2c(O)c3ccccc3[nH]c2=O)ccc1N=Nc1ccc(C(=O)N(C)C)cc1 | inactive
46 | COc1ccccc1-n1c(-c2ccccc2)c[nH]c1=S | inconclusive [falling, partial curve]
47 | CCOC(=O)C(=O)Nc1ccccc1C(N)=O | inconclusive [falling, single point]
48 | Cc1cc(C)c(NC(=O)c2c[nH]c(=S)n2-c2ccc(F)cc2)c(C)c1 | inconclusive [falling, partial curve]
49 | Cc1c(CC(=O)O)c(=O)oc2cc(OCc3ccc(Cl)cc3)ccc12 | inconclusive [falling, partial curve]
50 | O=C1C=C(N(CCO)CCO)C2(CCCCC2)O1 | inconclusive [activator, partial curve, poor fit]

Row | SMILES | Potency
51 | CCCCNC(=O)Cn1nc([N+](=O)[O-])c([N+](=O)[O-])c1C | inconclusive [falling, single point]
52 | C=CCn1c(=S)[nH]c2scc(-c3ccc(C)o3)c2c1=O | inconclusive [falling, single point]
53 | O=C(O)C1CCC(Cn2c(SCc3cc(=O)n4cc(Br)ccc4n3)nc3ccsc3c2=O)CC1 (centres undefined) | inactive
54 | CC(NCC(=O)Nc1cc(S(=O)(=O)N2CCOCC2)ccc1Cl)c1ccc(Cl)cc1Cl (centres undefined) | inconclusive [falling, single point]
55 | O=C(/C=C\c1ccco1)Nc1nc(-c2ccc3ccccc3c2)cs1 | inactive
56 | O=C(COc1ccc(Br)cc1Cl)NC(=O)Nc1ccc2c(c1)OCCO2 | inactive
57 | NC(=O)CC(NC(=O)c1ccc(Br)cc1)c1ccc(NC2CCCCCCC2)c([N+](=O)[O-])c1 (centres undefined) | inactive
58 | COc1cc(/C=N/NC(=O)c2ccc(COc3ccccc3Cl)o2)cc(Br)c1O | inconclusive [activator, single point]
59 | O=C(NCc1ccco1)C1CCN(C(=O)c2ccc([N+](=O)[O-])cc2)CC1 | inactive
60 | O=C(COc1ccccc1F)Nc1ccc(S(=O)(=O)Nc2nccs2)cc1 | active: 4.78 µM
61 | COC(=O)c1cc(C)sc1NC(=O)CN1CCN(C(=O)c2ccco2)CC1 | inactive
62 | CC(C)(C)n1nnnc1C(c1ccccc1)N1CCc2ccccc2C1 (centres undefined) | inactive
63 | O=C(COc1ccc2c(c1)oc(=O)c1ccccc12)NCCCN1CCOCC1 | inactive
64 | O=C(O)c1cc(S(=O)(=O)O)cc(Nc2c3ccccc3nc3ccccc23)c1O | inconclusive [falling, single point]
65 | O=C(NC1CCC(O)CC1)c1cccc2cccnc12 (centres undefined) | inactive
66 | NC(=S)N/N=C1\CCSc2ccc(Cl)cc21 | inactive
67 | CC1(C)CC(=O)c2sc(NC(=O)c3ccc4ncsc4c3)nc2C1 | inconclusive [activator, single point]
68 | Cc1nc2ccccc2c(=O)n1-c1ccc(NS(=O)(=O)c2ccccc2)cc1 | inconclusive [falling, single point]
69 | C(=C\c1ccco1)/C=N/n1cnnc1 | inconclusive [falling, single point]
70 | COc1cccc(NC(=O)CN(C2=NC3CS(=O)(=O)CC3S2)c2cccc(C)c2)c1 (centres undefined) | inactive
71 | O=C(CSc1nc2sccc2c(=O)[nH]1)N1CCN(c2ccccc2)CC1 | inconclusive [falling, single point]
72 | CNc1ccc(/C=C(\CCC(=O)O)c2nc3ccccc3s2)cc1[N+](=O)[O-] | inactive
73 | O=[N+]([O-])c1ccc(/C=N/N2CCN(Cc3ccccc3)CC2)cc1 | inactive
74 | O=C(CSc1nc(NS(=O)(=O)c2ccccc2)cc(=O)[nH]1)Nc1ccc(Cl)cc1 | inconclusive [falling, single point]
